Source: patent US20220340678A1 (MURAL ONCOLOGY, published 2022)

Target: T1, IL-2/IL-15 receptor on HH cells (human)
T1 chain 1: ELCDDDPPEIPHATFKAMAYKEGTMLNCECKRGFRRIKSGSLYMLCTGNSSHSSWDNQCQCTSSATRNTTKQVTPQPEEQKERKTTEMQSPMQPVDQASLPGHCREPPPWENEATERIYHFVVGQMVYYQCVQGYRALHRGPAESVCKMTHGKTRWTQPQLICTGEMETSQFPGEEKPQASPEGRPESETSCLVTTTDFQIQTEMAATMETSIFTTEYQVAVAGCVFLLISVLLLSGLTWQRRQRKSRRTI
T1 chain 2: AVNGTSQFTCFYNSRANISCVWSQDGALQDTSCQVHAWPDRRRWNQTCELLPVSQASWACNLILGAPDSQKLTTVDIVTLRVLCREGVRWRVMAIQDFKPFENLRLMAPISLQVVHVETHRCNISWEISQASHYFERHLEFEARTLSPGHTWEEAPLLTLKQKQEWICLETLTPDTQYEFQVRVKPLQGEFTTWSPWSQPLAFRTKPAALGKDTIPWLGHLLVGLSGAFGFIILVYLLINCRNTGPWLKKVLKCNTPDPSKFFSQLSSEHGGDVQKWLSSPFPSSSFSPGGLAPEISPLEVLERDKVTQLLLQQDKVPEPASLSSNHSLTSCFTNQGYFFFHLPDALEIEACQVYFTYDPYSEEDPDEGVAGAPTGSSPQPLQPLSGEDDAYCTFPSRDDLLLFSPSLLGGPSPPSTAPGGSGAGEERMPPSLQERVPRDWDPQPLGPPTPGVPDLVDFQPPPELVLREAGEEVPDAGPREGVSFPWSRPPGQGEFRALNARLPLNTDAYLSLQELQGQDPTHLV
T1 chain 3: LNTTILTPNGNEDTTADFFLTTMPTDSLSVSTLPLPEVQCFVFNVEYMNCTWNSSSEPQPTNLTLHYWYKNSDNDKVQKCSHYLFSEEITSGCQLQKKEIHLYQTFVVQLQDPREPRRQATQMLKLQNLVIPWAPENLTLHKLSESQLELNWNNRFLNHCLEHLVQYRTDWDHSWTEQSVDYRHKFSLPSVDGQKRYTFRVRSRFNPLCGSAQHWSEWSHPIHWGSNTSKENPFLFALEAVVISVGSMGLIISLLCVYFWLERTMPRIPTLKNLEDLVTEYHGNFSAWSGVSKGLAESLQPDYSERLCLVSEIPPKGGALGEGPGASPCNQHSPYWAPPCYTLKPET
Experiment: cell-based or functional assay

pSTAT5 EC50, HH cells: 2.1 nM
B1: Human cpIL-2:IL-2Ra:Fc:Human uPA-ATF (Fc fusion)
chain: SKNFHLRPRDLISNINVIVLELKGSETTFMCEYADETATIVEFLNRWITFSQSIISTLTGGSSSTKKTQLQLEHLLLDLQMILNGINNYKNPKLTRMLTFKFYMPKKATELKHLQCLEEELKPLEEVLNLAQGSGGGSELCDDDPPEIPHATFKAMAYKEGTMLNCECKRGFRRIKSGSLYMLCTGNSSHSSWDNQCQCTSSATRNTTKQVTPQPEEQKERKTTEMQSPMQPVDQASLPGHCREPPPWENEATERIYHFVVGQMVYYQCVQGYRALHRGPAESVCKMTHGKTRWTQPQLICTGGGGS[omitted - about 350 residues with a human IgG1 Fc]
